Some of the results follow.

The assay deals with HSkMC (human skeletal muscle cells). Put plainly: cytotoxicity call (relative viability < 0.9). The conditions noted are these: 10 µM.
As to `CN1C[C@@H](O)COC[C@H]2O[C@@H](CC(=O)N3CCN(c4ccccc4)CC3)CC[C@@H]21`, the cytotoxicity call was “inactive”. Consider `CN1CCN(C(=O)C[C@H]2C[C@@H]3c4cc(NC(=O)c5ccc6c(c5)OCO6)ccc4O[C@@H]3[C@H](CO)O2)CC1`, for which the cytotoxicity call is “inactive”.

With `CCCCCCOc1ccccc1C(N)=O`, the cytotoxicity call was “inactive”. The result for `C[C@@H]1CN([C@H](C)CO)S(=O)(=O)c2ccc(C3=CCCCC3)cc2O[C@@H]1CN(C)Cc1cncnc1` reads “inactive”; that for `COc1ccc(CN2C[C@@H](C)[C@@H](OC)CN(C)C(=O)c3ccc(NC(=O)c4nc5ccccc5s4)cc3OC[C@H]2C)cc1`, “inactive”. The result for `C[C@@H]1CCCCO[C@@H](CN(C)C(=O)NC2CCCCC2)[C@@H](C)CN([C@@H](C)CO)C(=O)c2cc(NC(=O)Nc3ccccc3)ccc2O1` reads “inactive”. For the molecule `C[C@@H]1CCCCO[C@@H](CN(C)C(=O)Nc2ccc(C(F)(F)F)cc2)[C@@H](C)CN([C@H](C)CO)C(=O)c2cc(NC(=O)Nc3ccc4c(c3)OCO4)ccc2O1`, the cytotoxicity call is “inactive”.

With `Nc1nc2nc[nH]c2c(=S)[nH]1`, the cytotoxicity call is “inactive”. Next, `CC(C)NC(=O)N(C)C[C@H]1Oc2ccc(NC(=O)Cn3cnnn3)cc2C(=O)N([C@H](C)CO)C[C@@H]1C`: “inactive”; `CN1C(=O)c2cc(NC(=O)c3ccc(F)c(F)c3)ccc2OC[C@@H]2O[C@@H](CC(=O)N3CCOCC3)CC[C@@H]21`: “inactive”; `CCOC(=O)c1ccc(NC(=O)N[C@H]2O[C@@H](CO)[C@@H](O)[C@@H](O)[C@@H]2O)cc1`: “inactive”.

Consider `C[C@@H]1CN([C@@H](C)CO)C(=O)Cc2cc(NC(=O)CCN3CCOCC3)ccc2O[C@@H]1CN(C)Cc1ccc(C(=O)O)cc1`, for which the cytotoxicity call is “inactive”. Take `O=S(=O)(Cc1ccccc1)Nc1ccc(-c2ccc3c(cnn3-c3ccc(F)cc3)c2)c(C(F)(F)F)c1`: the cytotoxicity call was “inactive”. The result for `C[C@@H]1CCCCO[C@H](CN(C)C(=O)Nc2ccccc2)[C@@H](C)CN([C@H](C)CO)C(=O)c2cc(NC(=O)c3ccncc3)ccc2O1` reads “inactive”; that for `C[C@@H]1CN([C@H](C)CO)C(=O)c2cc(NC(=O)Nc3ccc(C(F)(F)F)cc3)ccc2O[C@@H](C)CCCCO[C@H]1CN(C)Cc1ccc2c(c1)OCO2`, “active”. Consider `O=C(C[C@@H]1C=C[C@@H](NC(=O)CN2CCOCC2)[C@H](CO)O1)NC1CCCCC1`, for which the cytotoxicity call was “inactive”. For the molecule `Cc1noc(C)c1NC(=O)N(C)C[C@@H]1Oc2ccc(NC(=O)Cn3cnnn3)cc2C(=O)N([C@@H](C)CO)C[C@H]1C`, the cytotoxicity call is “inactive”. Take `COCC#Cc1ccc2c(c1)O[C@@H](CN(C)Cc1ccccc1F)[C@@H](C)CN([C@@H](C)CO)S2(=O)=O`: the cytotoxicity call is “inactive”.

`C[C@H](CO)N1C[C@H](C)[C@H](CN(C)C(=O)c2ccc3c(c2)OCO3)Oc2cc(-c3ccncc3)ccc2S1(=O)=O`: the cytotoxicity call is “inactive”. The result for `N#CC(c1ccccc1)(c1ccccc1)c1ccccc1Cl` reads “inactive”. For `C[C@@H]1CN([C@@H](C)CO)C(=O)Cc2cc(NC(=O)CCCCCC(=O)Nc3ccccc3N)ccc2O[C@H]1CN(C)Cc1ccccc1`, the cytotoxicity call was “inactive”. Regarding `CCCNC(=O)N1C[C@]2(CCN(CC2)C(=O)Cc2cccnc2)c2c([nH]c3cc(ccc23)OC)[C@@H]1CO`, the cytotoxicity call is “inactive”. With `C[C@]1(C(=O)NCCN2CCOCC2)c2ccccc2C(=O)N(Cc2cc(C(F)(F)F)cc(C(F)(F)F)c2)[C@H]1c1ccc(CO)cc1`, the cytotoxicity call was “inactive”. Next, `C[C@H](CO)N1C[C@H](C)[C@@H](CN(C)C(=O)Nc2ccc(-c3ccccc3)cc2)OCc2ccccc2-c2ccccc2C1=O`: “inactive”; `O=C(O[C@@H]1Cc2c(O)cc(O)cc2O[C@@H]1c1cc(O)c(O)c2c(=O)c(O)cc([C@H]3Oc4cc(O)cc(O)c4C[C@H]3O)c-2c1)c1cc(O)c(O)c(O)c1`: “inactive”; `CC(C)NC(=O)Nc1ccc2c(c1)C(=O)N([C@@H](C)CO)C[C@H](C)[C@@H](CN(C)C(=O)C1CCCCC1)OCCCC[C@H](C)O2`: “inactive”. The result for `C[C@@H]1CN([C@@H](C)CO)C(=O)c2cccc(NC(=O)Nc3ccc(C(F)(F)F)cc3)c2O[C@@H]1CN(C)Cc1ccc2c(c1)OCO2` reads “inactive”.

`C[C@H]1CN([C@@H](C)CO)C(=O)Cc2cc(NS(C)(=O)=O)ccc2O[C@H]1CN(C)Cc1ccc2c(c1)OCO2`: the cytotoxicity call is “inactive”.

Take `C[C@@H]1CN([C@@H](C)CO)C(=O)Cc2cc(NC(=O)CCCCCC(=O)Nc3ccccc3N)ccc2O[C@@H]1CN(C)Cc1ccc(-c2ccccc2)cc1`: the cytotoxicity call was “inactive”.

Turning to `O=C(NCCN1CCCC1)[C@H]1[C@H](CO)[C@H]2Cn3c(cccc3=O)[C@@H]1N2C(=O)c1ccccc1`, the cytotoxicity call is “inactive”.

Consider `CC(C)NC(=O)N[C@@H]1C=C[C@H](CC(=O)O)O[C@H]1CO`, for which the cytotoxicity call was “inactive”. The result for `CO[C@@H](C(=O)N(C)C[C@@H]1OCc2ccccc2-c2c(n(C)c3ccccc23)C(=O)N([C@@H](C)CO)C[C@@H]1C)c1ccccc1` reads “inactive”; that for `CN(C)CCCOc1nn(Cc2ccccc2)c2ccccc12.Cl`, “inactive”; that for `O=C(c1cccs1)N1c2ccccc2Sc2ccccc21`, “inactive”. Next, `C[C@H]1CN([C@@H](C)CO)C(=O)c2cc(NC(=O)C3CC3)ccc2O[C@@H]1CN(C)Cc1ccc2c(c1)OCO2`: “inactive”. The result for `Cc1ccc(S(=O)(=O)Nc2cccc3c2O[C@@H](CN(C)S(C)(=O)=O)[C@@H](C)CN([C@H](C)CO)C3=O)cc1` reads “inactive”; that for `COc1cc(CN2C(=O)[C@@H]3[C@H]4C(=O)O[C@@H](c5ccccc5)[C@H](C)N(C)C(=O)CC/C=C\CN(Cc5ccccc5)C(=O)[C@H]2[C@]32C=C[C@@H]4O2)ccc1O[SiH](C(C)C)C(C)C`, “inactive”; that for `O=C(O)C=CC(=O)O.OCCOCCN1CCN(C2=Nc3ccccc3Sc3ccccc32)CC1`, “inactive”. As to `C[C@@H]1CCCCO[C@@H](CN(C)Cc2ccc(C(=O)O)cc2)[C@@H](C)CN([C@@H](C)CO)C(=O)c2cc(NS(=O)(=O)c3ccccc3)ccc2O1`, the cytotoxicity call was “inactive”. As for `NCCOc1ccccc1Cc1ccccc1`, the cytotoxicity call is “inactive”.

(Values after the antibiotic and cytotoxicity screens of Wong et al. (2023).)
